Results reported in the supplement of paper PMC3334620.
Over roughly 33,000 sequences, “E-score (-0.5 to 0.5)” has its median near -0.017; the highest 2% begin near 0.3. This is one part of the list.

biological target: T1, Sut1 (UniProt P53032); assay: PBM E-score (8-mer binding enrichment) (E-score (-0.5 to 0.5)); higher = stronger / more preferred TF binding; most listed sequences are background and not binding sites; conditions: protein concentration: 200 nM; construct: GST-full length
T1 sequence: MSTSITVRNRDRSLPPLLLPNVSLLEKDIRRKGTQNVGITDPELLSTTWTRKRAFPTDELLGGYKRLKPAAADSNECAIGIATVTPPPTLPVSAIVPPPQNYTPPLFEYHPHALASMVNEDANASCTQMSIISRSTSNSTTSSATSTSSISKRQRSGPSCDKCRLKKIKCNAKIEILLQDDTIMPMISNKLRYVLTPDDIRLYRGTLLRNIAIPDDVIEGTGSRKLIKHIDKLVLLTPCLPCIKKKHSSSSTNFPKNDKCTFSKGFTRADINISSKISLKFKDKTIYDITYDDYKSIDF
Summary of the method: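 Masliner-normalised scans of fluorescent anti-GST signal were the basis for scoring. That signal came from GST-tagged yeast transcription factors applied at about 100-200 nM to double-stranded universal all-10-mer Agilent arrays on fresh or once-stripped slides. Each ungapped eight-base word, pooled with its reverse complement, received an E-score from the Universal PBM Analysis Suite.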

| Sequence | PBM E-score |
| --- | --- |
| AGTATCCG | 0.188 |
| ATATCCGA | 0.294 |
| CACCCCCC | -0.355 |
| CCCCGGTA | 0.0227 |
| CCCTGGGC | -0.324 |
| AGGTACTA | 0.124 |
| CAAACTTC | 0.18 |
| TCGAGACA | -0.0741 |
| CCCCCCCC | -0.484 |
| CCGGGGCC | -0.0306 |
| CGCGGAGA | 0.387 |
| CTGCTACA | 0.0132 |
| AAATGACA | 0.0563 |
| ATTCCTGA | -0.132 |
| TCGACTAA | -0.0425 |
| CCGTGTCA | 0.11 |
| CAAGGAGC | -0.107 |
| CCCACAAG | -0.222 |
| AAGGATCG | 0.00938 |
| ACCTATCC | 0.00738 |
| AATTAATG | 0.273 |
| CATGACTA | -0.15 |
| AAATTTTC | 0.145 |
| CCTGTTCA | -0.193 |
| CACTTAGC | -0.173 |

| Sequence | PBM E-score |
| --- | --- |
| ACTTGTGG | -0.0684 |
| CAACGCAC | -0.0583 |
| ATAATAGC | -0.032 |
| CTAGTCTC | -0.0418 |
| TACACGTA | 0.0499 |
| CCCTACAC | -0.0611 |
| CGTCATCA | -0.0636 |
| AATGAGGT | 0.171 |
| CTGTGAGC | -0.15 |
| GGAGGATA | -0.00419 |
| ATCTCGAA | 0.0769 |
| ATTTCTGG | 0.0933 |
| AGCAGGCC | -0.101 |
| AATAGTCA | 0.102 |
| CTACGCTA | -0.154 |
| AACGTCTC | 0.017 |
| TGAGGGAA | -0.158 |
| ATTTAAGG | 0.141 |
| AATCATGG | -0.029 |
| AACGAGCA | -0.173 |
| ATCCTATG | 0.0966 |
| ATCTCCGG | 0.478 |
| ATTAATAA | 0.265 |
| GCTCCAAA | -0.057 |
| CATGGTAC | 0.00112 |

| Sequence | PBM E-score |
| --- | --- |
| GGATGGGA | -0.12 |
| AGGTCCTA | -0.154 |
| GCTTGGTA | -0.108 |
| CTGATCAC | -0.0813 |
| AAGAACGA | 0.094 |
| CACTTCTA | -0.0188 |
| ACGTCAGG | -0.253 |
| TCGGTACA | -0.151 |
| CGCACTTA | 0.0354 |
| AAAGGCTG | -0.136 |
| CATCGGGG | -0.00411 |
| AAAAGCCA | 0.238 |
| CCCGTGAG | -0.0708 |
| TAGTACAA | 0.213 |
| CCCGCAGG | -0.147 |
| TGATCCCA | -0.0775 |
| GCTTTGAA | -0.00621 |
| ATGTAGTC | 0.18 |
| GGTAACCA | -0.174 |
| CGGAGTAC | 0.487 |
| CACTACAG | -0.00583 |
| CCATTCAG | -0.0279 |
| CAGATGCC | -0.268 |
| CGCGGGCC | 0.0313 |
| GACGGGGA | 0.00167 |

| Sequence | PBM E-score |
| --- | --- |
| ACGTGAAC | -0.232 |
| ATTGTGGA | 0.0202 |
| CGTGGAAC | -0.0578 |
| GATGTTAA | 0.0896 |
| CTCCGTTA | 0.335 |
| AATCAATC | 0.181 |
| ACAGATAA | 0.207 |
| AGCGTACC | -0.193 |
| GTATGCGA | 0.0317 |
| TCGCCTCA | -0.0147 |
| CCCGAATC | 0.0311 |
| ACACTGTA | 0.111 |
| CCTTACTA | 0.0567 |
| TCCCAGAA | -0.0934 |
| TCTCTCCA | -0.0705 |
| ATATTCGA | 0.0265 |
| ATTATTTA | 0.347 |
| AAGCGCAG | -0.103 |
| ACGTGTAA | 0.0397 |
| CATTACCA | -0.00971 |
| AGGCGGGG | -0.243 |
| ATCCTCCC | -0.236 |
| CAAGGACC | -0.139 |
| AAATGCCA | 0.058 |
| CCGTGCAC | -0.228 |

| Sequence | PBM E-score |
| --- | --- |
| GGCGCGAC | 0.00813 |
| AGAAAGTA | 0.153 |
| GTGCTCAA | 0.132 |
| CATCGAGG | -0.169 |
| AGTGCCCC | -0.302 |
| CCTCCCCC | -0.438 |
| CGCCATTC | 0.093 |
| ATCATGAT | 0.175 |
| ACGTGAAA | 0.149 |
| TAGGGTAA | 0.132 |
| ACCCACTA | 0.0761 |
| AAGGCACA | -0.0277 |
| ACGTCAAG | -0.0358 |
| GGTCATAA | 0.0894 |
| CCTACCCC | -0.105 |
| ATCTTTCG | -0.00103 |
| AACAGTGG | -0.143 |
| GATAGTAC | -0.00235 |
| CTGCCGAC | -0.31 |
| CAACCTGG | -0.0286 |
| CCCCGGAA | 0.216 |
| AAATCAGA | 0.0971 |
| ACATAAAA | 0.1 |
| ACTAACTC | 0.209 |
| ACGTCGAT | 0.0428 |

| Sequence | PBM E-score |
| --- | --- |
| CCACGCCC | -0.223 |
| CCCCCACA | -0.434 |
| ATTCTCCA | -0.0299 |
| AGACGGGA | -0.153 |
| ACTTGTCT | 0.0607 |
| AGGGCCCG | -0.184 |
| TACCATGA | -0.0343 |
| ACAGACAT | 0.0204 |
| ACGTTTGC | -0.0259 |
| GTCTTTCA | 0.00965 |
| ACCAATCA | 0.134 |
| ACACTTTA | 0.182 |
| CAATTAGC | 0.131 |
| CCGTCATA | -0.00145 |
| CTGATAAG | 0.0276 |
| AAGCGGAC | 0.12 |
| CGAGAAAC | 0.12 |
| GACCGCGC | -0.0311 |
| ATCGGGAG | 0.00129 |
| ATTCGCTG | 0.123 |
| AACCGCTT | -0.108 |
| GCGAAGTA | 0.0953 |
| CACGGTGG | -0.0763 |
| ACCGGGGC | -0.013 |
| CCACGCTC | -0.297 |

| Sequence | PBM E-score |
| --- | --- |
| ACAATGAG | 0.0663 |
| CTTCACAA | 0.047 |
| ATCGACAC | -0.103 |
| ACGGTGAC | -0.181 |
| ATATGCAG | -0.134 |
| GCTGGTCA | -0.178 |
| AGCAGTGA | -0.0355 |
| AGGGTCGA | -0.0378 |
| CCTCAAAG | -0.186 |
| ATGGTGGA | -0.145 |
| CCGTTTAG | 0.104 |
| AACTGTCT | -0.116 |
| AGTGAGTC | -0.0638 |
| ACCTCAGT | -0.1 |
| ATTTAGAG | 0.126 |
| AAGCGTTA | 0.0481 |
| CAATTTGC | -0.181 |
| GCCCTTCC | -0.181 |
| GACGCCAC | -0.3 |
| ATCGGACC | 0.353 |
| ACCCCGCG | 0.111 |
| CCCCCAAC | -0.282 |
| GTAGCAGA | 0.0197 |
| TAGAACCA | 0.12 |
| AAGGAAGC | -0.117 |

| Sequence | PBM E-score |
| --- | --- |
| GCAAGATA | 0.063 |
| CCTGTGGA | -0.271 |
| GAGGTTTA | 0.127 |
| GTAATAAC | 0.104 |
| AGAGGTGC | -0.202 |
| CAGGCACA | -0.317 |
| CTAGATGA | -0.0501 |
| GTGCTGGA | -0.268 |
| ATGCCGGC | -0.0395 |
| GCGACCGC | -0.23 |
| ACGCTAAC | -0.22 |
| AGGGCTTA | -0.334 |
| ACCTTCCA | -0.124 |
| ACGACCTA | -0.0461 |
| AATTCGCT | 0.271 |
| ATGCAGTG | -0.0663 |
| AGCGTGAG | -0.265 |
| AATGTGGT | 0.0399 |
| AATAACCC | 0.135 |
| TAACAAGA | 0.123 |
| CGGACTCA | 0.429 |
| GATATGAC | 0.0419 |
| AAATACAG | 0.0417 |
| GGACTCCC | -0.0455 |
| TAATACGA | 0.0709 |

| Sequence | PBM E-score |
| --- | --- |
| TCTAGAAA | 0.06 |
| CAATCCCC | 0.097 |
| AGACCTAA | -0.109 |
| AGCGCTAA | 0.117 |
| CTCTATAC | 0.00445 |
| ACCGTTTA | 0.00805 |
| ATTAGTGG | 0.173 |
| AAGTTAAG | -0.0496 |
| AGTTCAAC | 0.113 |
| CATTAGGC | -0.191 |
| CTCCAACA | 0.0974 |
| CATACGAC | 0.0661 |
| ATACTCAA | 0.11 |
| CATGCCGA | -0.0693 |
| AGTCTACA | -0.0739 |
| CAACTGTG | -0.0883 |
| AGGGGGCG | -0.222 |
| GTTTCTGA | 0.112 |
| CGCGAGCA | -0.227 |
